Laboratory results as given in the antibiotic and cytotoxicity screens of Wong et al. (2023).
Some of the results follow.

Key:
HSkMC = human skeletal muscle cells; assay: cytotoxicity call (relative viability < 0.9); conditions: 10 µM
HepG2 = assay: cytotoxicity call (relative viability < 0.9); conditions: 10 µM
S. aureus RN4220 = assay: growth inhibition call (relative growth <= 0.2); conditions: 50 µM

| Structure (SMILES) | cytotoxicity call (HSkMC) | cytotoxicity call (HepG2) | growth inhibition call (S. aureus RN4220) |
| --- | --- | --- | --- |
| CC(=O)c1ccc2c(c1)N(CCCN(C)C)c1ccccc1S2.O=C(O)C=CC(=O)O | inactive | inactive | inactive |
| Cc1ccc(S(=O)(=O)N2C[C@H](O)COC[C@@H]3O[C@@H](CC(=O)NCCN4CCCCC4)CC[C@H]32)cc1 | inactive | inactive | inactive |
| C[C@H]1CCCCO[C@H](CN(C)C(=O)Nc2cccc3ccccc23)[C@@H](C)CN([C@@H](C)CO)C(=O)c2cc(NC(=O)C3CCCCC3)ccc2O1 | inactive | inactive | inactive |
| COc1ccc2c3c([nH]c2c1)[C@@H](CO)N(C[C@]13CN(CC2CCOCC2)C1)C(=O)Nc1c(noc1C)C | inactive | inactive | inactive |
| C[C@@H]1CN([C@@H](C)CO)C(=O)c2cc(NC(=O)Nc3cccc4ccccc34)ccc2O[C@@H](C)CCCCO[C@H]1CN(C)Cc1ccc(C(=O)O)cc1 | inactive | inactive | inactive |
| CC(C)(C)S(=O)N1Cc2cc(C(=O)NCc3ccc4c(c3)OCO4)nc(-c3cccc(-c4cccc(F)c4)c3)c2[C@H]1CCO (some centres undefined) | inactive | active | inactive |
| NCC(=O)NC1CCCCC1 | inactive | inactive | inactive |
| CC(C)NC(=O)N(C)C[C@H]1OCc2cnnn2CCCC(=O)N([C@@H](C)CO)C[C@@H]1C | inactive | inactive | inactive |
| C[C@@H]1CN([C@@H](C)CO)C(=O)c2cccc(NC(=O)Nc3ccc(F)cc3)c2O[C@H]1CN(C)Cc1ccc(Cl)c(Cl)c1 | inactive | active | inactive |
| Cc1noc(C)c1S(=O)(=O)N(C)C[C@H]1Oc2ccc(NS(C)(=O)=O)cc2C(=O)N([C@H](C)CO)C[C@H]1C | inactive | inactive | inactive |
| CC1(C)CCC(c2ccc(Cl)cc2)=C(CN2CCN(c3ccc(C(=O)NS(=O)(=O)c4ccc(N[C@H](CCN5CCOCC5)CSc5ccccc5)c(S(=O)(=O)C(F)(F)F)c4)cc3)CC2)C1 | active | active | inactive |
| C[C@@H]1CN([C@@H](C)CO)C(=O)Cc2cc(NC(=O)NC3CCCCC3)ccc2O[C@@H]1CN(C)S(=O)(=O)c1cn(C)cn1 | inactive | inactive | inactive |
| C[C@H]1CN([C@@H](C)CO)C(=O)c2cc(C#CC3(O)CCCC3)cnc2O[C@@H]1CN(C)C(=O)Nc1ccc2c(c1)OCO2 | inactive | inactive | inactive |
| COc1cccc(C(=O)Nc2ccc3c(c2)C(=O)N(C)[C@H]2CC[C@@H](CC(=O)NCC4CC4)O[C@@H]2CO3)c1 | inactive | inactive | inactive |
| O=Cc1ccccc1OC1OC(CO)C(O)C(O)C1O (centres undefined) | inactive | inactive | inactive |
| C[C@@H]1CN([C@H](C)CO)C(=O)Cc2cc(NS(=O)(=O)c3cn(C)cn3)ccc2O[C@H]1CN(C)Cc1ccncc1 | inactive | inactive | inactive |
| O=C(C[C@@H]1CC[C@H](NC(=O)Cc2ccccn2)[C@@H](CO)O1)NCCc1ccncc1 | inactive | inactive | inactive |
| O=C(N[C@@H]1CC=CC[C@H](CC(=O)N(CCO)Cc2ccccc2)C(=O)NCC(c2ccccc2)OC1=O)OCC1c2ccccc2-c2ccccc21 (some centres undefined) | inactive | inactive | inactive |
| C[C@@H]1CN([C@H](C)CO)C(=O)c2cccc(NC(=O)Nc3ccccc3)c2O[C@H]1CN(C)Cc1ccc(-c2ccccc2)cc1 | active | inactive | inactive |
| C[C@H]1CN([C@@H](C)CO)C(=O)c2cc(NC(=O)Cn3cnnn3)ccc2O[C@@H]1CN(C)C(=O)Nc1ccc2c(c1)OCO2 | inactive | inactive | inactive |
| Cc1noc(C)c1S(=O)(=O)Nc1ccc2c(c1)CC(=O)N([C@@H](C)CO)C[C@H](C)[C@@H](CN(C)Cc1ccc3c(c1)OCO3)O2 | inactive | inactive | inactive |
| C[C@@H]1CN([C@H](C)CO)C(=O)c2cc(NS(=O)(=O)c3cn(C)cn3)ccc2O[C@H]1CN(C)C(=O)Nc1ccc2c(c1)OCO2 | inactive | inactive | inactive |
| C[C@H]1CN([C@@H](C)CO)S(=O)(=O)c2ccc(C3=CCCC3)cc2O[C@H]1CN(C)C(=O)Cc1ccncc1 | inactive | inactive | inactive |
| Cc1ccc(S(=O)(=O)Nc2ccc3c(c2)C(=O)N([C@@H](C)CO)C[C@H](C)[C@H](CN(C)Cc2ccc4c(c2)OCO4)OCCCC[C@@H](C)O3)cc1 | inactive | inactive | inactive |
| COc1ccccc1C#Cc1cnc2c(c1)C(=O)N([C@@H](C)CO)C[C@H](C)[C@@H](CN(C)C(=O)CC1CC1)O2 | inactive | inactive | inactive |
| O=C(C[C@H]1CC[C@@H]2[C@H](COC[C@H](O)CN2S(=O)(=O)c2ccccc2)O1)NCc1ccc(-c2ccccc2)cc1 | inactive | inactive | inactive |
| C[C@@H]1CN([C@H](C)CO)C(=O)c2cccc(NC(=O)Nc3ccccc3)c2O[C@@H]1CN(C)Cc1ccc(C(F)(F)F)cc1 | inactive | inactive | inactive |

| Structure (SMILES) | cytotoxicity call (HSkMC) | cytotoxicity call (HepG2) | growth inhibition call (S. aureus RN4220) |
| --- | --- | --- | --- |
| C[C@@H]1CN([C@H](C)CO)C(=O)c2cccc(NC(=O)c3nc4ccccc4s3)c2O[C@H]1CN(C)Cc1ccc(C(=O)Nc2ccccc2N)cc1 | inactive | inactive | inactive |
| CO[C@H]1CN(C)C(=O)c2cc(NC(=O)Nc3ccccc3F)ccc2OC[C@@H](C)N(CCC(F)(F)F)C[C@H]1C | inactive | inactive | inactive |
| Cc1noc(C)c1NC(=O)N(C)C[C@@H]1OCCCC[C@@H](C)Oc2ccc(NS(=O)(=O)c3cccs3)cc2C(=O)N([C@H](C)CO)C[C@@H]1C | inactive | inactive | inactive |
| Cc1ccc(S(=O)(=O)Nc2ccc3c(c2)C(=O)N([C@@H](C)CO)C[C@@H](C)[C@@H](CN(C)Cc2ccc(C(F)(F)F)cc2)O3)cc1 | inactive | inactive | inactive |
| C[C@H](CO)N1C[C@H](C)[C@@H](CN(C)C(=O)[C@H](C)c2ccccc2)OCc2ccccc2-c2c(n(C)c3ccccc23)C1=O | inactive | inactive | inactive |
| CO[C@H]1CN(C)C(=O)c2ccc(NC(=O)C3CCOCC3)cc2OC[C@H](C)N(Cc2cccnc2)C[C@@H]1C | inactive | inactive | inactive |
| Cc1noc(C)c1S(=O)(=O)N(C)C[C@H]1Oc2ccc(NS(=O)(=O)c3cn(C)cn3)cc2CC(=O)N([C@@H](C)CO)C[C@@H]1C | inactive | inactive | inactive |
| Cc1ccc(S(=O)(=O)N(C)C[C@H]2Oc3ccc(NC(=O)Nc4cccc5ccccc45)cc3C(=O)N([C@@H](C)CO)C[C@H]2C)cc1 | inactive | inactive | inactive |
| Cc1noc(C)c1NC(=O)Nc1ccc2c(c1)C(=O)N([C@H](C)CO)C[C@H](C)[C@H](CN(C)S(=O)(=O)c1ccc(Cl)cc1)OCCCC[C@@H](C)O2 | inactive | inactive | inactive |
| C[C@@H]1CCCCO[C@@H](CN(C)C(=O)Nc2ccc(F)cc2)[C@@H](C)CN([C@@H](C)CO)C(=O)c2cc(NC(=O)NC3CCCCC3)ccc2O1 | inactive | active | inactive |
| COc1ccc(S(=O)(=O)N(C)C[C@H]2Oc3ccc(NS(=O)(=O)c4c(C)noc4C)cc3CC(=O)N([C@@H](C)CO)C[C@H]2C)cc1 | inactive | inactive | inactive |
| C[C@H]1CN([C@@H](C)CO)C(=O)c2cc(C#CC3(O)CCCC3)cnc2O[C@H]1CN(C)C(=O)C1CCOCC1 | inactive | inactive | inactive |
| Cc1ccc(S(=O)(=O)Nc2ccc3c(c2)C(=O)N([C@@H](C)CO)C[C@@H](C)[C@H](CN(C)C(=O)CCC(F)(F)F)OCCCC[C@@H](C)O3)cc1 | inactive | inactive | inactive |
| COc1ccc(S(=O)(=O)N(C)C[C@H]2Oc3ccc(NC(=O)CCC(F)(F)F)cc3CC(=O)N([C@H](C)CO)C[C@H]2C)cc1 | inactive | inactive | inactive |
| CO[C@@H]1CN(C)C(=O)c2cc(NC(=O)c3ccc(F)cc3)ccc2OC[C@H](C)N(C(=O)CN(C)C)C[C@H]1C | inactive | inactive | inactive |
| CN1CCN(C(=O)[C@@H]2[C@@H](CO)[C@@H]3Cn4c(cccc4=O)[C@H]2N3S(=O)(=O)c2ccccc2F)CC1 | inactive | inactive | inactive |
| C[C@H]1CN([C@@H](C)CO)C(=O)c2cc(NC(=O)Cc3cn(C)c4ccccc34)ccc2O[C@H]1CN(C)C(=O)Nc1cccc2ccccc12 | inactive | inactive | inactive |
| COCCNC(=O)C[C@H]1CC[C@H]2[C@@H](COC[C@@H](O)CN2C(=O)Nc2ccc3c(c2)OCO3)O1 | inactive | inactive | inactive |
| COc1ccc(C#Cc2cnc3c(c2)C(=O)N([C@@H](C)CO)C[C@H](C)[C@@H](CN(C)C(=O)CN(C)C)O3)cc1 | inactive | inactive | inactive |
| CN1C(=O)c2cc(NC(=O)c3ccc(F)cc3)ccc2OC[C@@H]2O[C@@H](CC(=O)N3CCOCC3)CC[C@@H]21 | inactive | inactive | inactive |
| COC[C@@H](O)CSc1[nH]c(C)nc1[N+](=O)[O-] | inactive | inactive | inactive |
| C[C@@H]1CN([C@H](C)CO)C(=O)c2cccc(NC(=O)c3cnccn3)c2O[C@@H]1CN(C)Cc1ccccc1 | inactive | inactive | inactive |
| Cc1ccc(S(=O)(=O)N(C)C[C@@H]2Oc3c(NC(=O)C4CCOCC4)cccc3C(=O)N([C@@H](C)CO)C[C@H]2C)cc1 | inactive | inactive | inactive |
| C[C@@H]1CCCCO[C@H](CN(C)Cc2ccc(C(F)(F)F)cc2)[C@@H](C)CN([C@@H](C)CO)C(=O)c2cc(NS(=O)(=O)c3ccccc3)ccc2O1 | inactive | inactive | inactive |
| C[C@@H]1CN([C@@H](C)CO)S(=O)(=O)c2ccc(C#Cc3ccncc3)cc2O[C@H]1CN(C)C(=O)C1CCC1 | inactive | active | inactive |
| C[C@@H]1CN([C@@H](C)CO)C(=O)c2cccc(NC(=O)c3ccncc3)c2O[C@@H]1CN(C)C(=O)Nc1ccc2c(c1)OCO2 | inactive | inactive | inactive |
